# Laboratory results: PubChem BioAssay AID1347071 (National Center for Advancing Translational Sciences (NCATS), 2019)
# Hit rate of the full screen: of about 410,000 compounds, about 260 (0.063%) were called active. Inconclusive results, whose numbers are uncertain, are shown with a selection of clear calls. Calls follow the shape of the dose curve; as a rule, active = well fitted activation curve with a large enough effect; inconclusive = small, poorly fitted or top-dose-only effect; inactive = no such curve, though single readings can be large or run the other way. Potencies of inconclusive entries are left out as doubtful fits.
# Assay: qHTS for compounds that reverse cellular toxicity of Amyloid beta (A-beta) peptide in yeast: Primary Screen; also: nearly all actives have a fitted effect of over 55% in size
# Conditions: yeast expressing A-beta42, growth rescue, OD600, 48 h; growth rescue: at 46.1 µM (top of the series), 0% DMSO, 100% iron-clioquinol control
# Outline: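 Yeast A-beta toxicity model in growth medium with pinned compounds, 48 h at 30 C; growth read as absorbance at 600 nm. Normalized to FeCl3/clioquinol equimolar mix (positive) and DMSO (negative).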
# Potency is read from the fitted curve at half-maximal effect; tags tell the direction and shape of the fitted curve.
SMILES,Potency,growth rescue
N#Cc1cccc(-c2csc(C(O)(c3ccccc3)C(F)(F)F)n2)c1 (configuration not stated),active: 12.6 µM,
Oc1ccc(N=Nc2nccs2)c(O)c1,"inconclusive [activator, partial curve, poor fit]",
COC(=O)c1ccc(C2C(C#N)=C(C)NC3=C2C(=O)CC(C)(C)C3)cc1 (configuration not stated),,inactive: 3.37%
COCCCn1c(=O)c2sccc2n2c(CCCC(=O)NCc3cccc(OC)c3)nnc12,"inconclusive [activator, single point]",
O=C(O)CC1c2ccccc2CCN1C(=O)Nc1cc(Cl)ccc1Cl (configuration not stated),,inactive: -0.596%
CCCCc1n[nH]c(=S)n1Cc1ccc(C)cc1,"inconclusive [activator, single point]",
CCc1ccc(-c2nc(CS(=O)CC(=O)NCCc3ccc(C)cc3)c(C)o2)cc1 (configuration not stated),,inactive: 10.7%
C/C(=N\NC(N)=S)C12CC3CC(CC(C3)C1)C2,"inconclusive [activator, full curve, poor fit]",
O=C(Oc1ccc(Cl)cc1)c1ccc(N2CCOCC2)c([N+](=O)[O-])c1,,inactive: 29.5%
CC(=NNC(=S)N1CCCCC1)c1ccccn1,,inactive: -78.5%
CCCCC1CCC(C(=O)N2CC(=O)Nc3ccc(Br)cc3C2c2ccc(F)cc2)CC1 (configuration not stated),"inconclusive [activator, partial curve]",
S=C(Nc1nc2c(s1)CCCC2)NC1CC1,active: 8.91 µM,
COc1ccc(S(=O)(=O)Oc2ccc3cccc(N)c3c2)cc1,"inconclusive [activator, single point]",
Cc1cc(C)c(COc2ccc(/C=N/n3c(C)n[nH]c3=S)cc2)c(C)c1,"inconclusive [activator, full curve, poor fit]",
O=C(Nc1ccc(S(=O)(=O)N2CCc3ccccc32)cc1)C(F)(F)F,"inconclusive [activator, partial curve, poor fit]",
CC1(C)CC(=O)C2=C(C1)NC(=S)C(C#N)C21CCCCC1 (configuration not stated),"inconclusive [activator, single point]",
COCCN(C(=S)Nc1cc(C)cc(C)c1)C(C)c1cccnc1 (configuration not stated),,inactive: 4.8%
COc1ccc(CNC(=O)c2cnc(C)cn2)c(OC)c1,,inconclusive: -50.3% [activator]
COc1ccc(CCNC(=O)CSc2nc(-c3ccc(OC)c(OC)c3)ccc2C#N)cc1,"inconclusive [activator, full curve]",
Cc1ccccc1NC(=S)NNC(=O)c1cccnc1,"inconclusive [activator, single point]",
COC(=O)NNC(=O)c1ccc(C)c(Br)c1,"inconclusive [activator, partial curve, poor fit]",
CCC(C)(C)c1ccc(Oc2ccc(NC(=O)COC(=O)C3=COCCO3)cc2)cc1,"inconclusive [activator, single point]",
COc1cc(C(=S)N2CCCC2)ccc1OCc1ccccc1,"inconclusive [activator, partial curve, poor fit]",
COc1ccc(OCCCC(=O)OCC(=O)Nc2nnc(-c3ccccc3)o2)cc1,"inconclusive [activator, single point]",

SMILES,Potency,growth rescue
Cc1cccc(NC(=S)/N=C(\N)Nc2nc(C)c3ccccc3n2)c1,"inconclusive [activator, full curve]",
Cc1c(C)c2ccc(OS(C)(=O)=O)cc2oc1=O,"inconclusive [activator, full curve, poor fit]",
COc1ccc2c(c1)C(=O)N1[C@H]3c4cc(Br)ccc4OC[C@@H]3[C@H](c3ccccc3)[C@]1(C)C(=O)N2,"inconclusive [activator, full curve]",
CCCNC(=O)C(Sc1ccccc1)c1ccccc1 (configuration not stated),"inconclusive [activator, single point]",
COc1ccc(C2=C(N)c3ccccc3C2=O)cc1,,inconclusive: -38.1% [activator]
N#CCCN(C(=O)CSc1nc2ccccc2c(=O)[nH]1)c1ccc(F)cc1,,inactive: 0.643%
CNC(=S)N(Cc1ccc(Cl)cc1)Cc1cccs1,"inconclusive [activator, partial curve, poor fit]",
CC(=O)c1ccc(S(=O)(=O)N2CCc3ccccc3C2)cc1,"inconclusive [activator, partial curve, poor fit]",
CC1=NN(C(N)=S)C(=O)C1N=Nc1ccc(Br)cc1 (configuration not stated),"inconclusive [activator, full curve, poor fit]",
CC(C)N(Cc1ccccc1)C(=S)NC(=O)C1(C)CC1(Cl)Cl (configuration not stated),"inconclusive [activator, partial curve, poor fit]",
COc1cc(OC)c(C#N)c(S(=O)(=O)Cc2ccccc2)c1,,inactive: 2.1%
Cc1ccccc1Cn1cc(NC(=O)c2noc3c2CC(C(C)(C)C)CC3)cn1 (configuration not stated),"inconclusive [activator, partial curve, poor fit]",
CCOC(=O)c1cccc(NC(=O)C2Cc3ccccc3N2C(=O)c2ccccc2)c1 (configuration not stated),,inactive: -3.62%
O=C(COc1ccc(Cl)cc1Cl)OCC(=O)N1CCCc2ccccc21,"inconclusive [activator, single point]",
COc1ccc2c(c1)C(c1ccccc1)NC(=O)C2 (configuration not stated),,inactive: -10.1%
Cc1nn(-c2ccccc2)c(C)c1C(=O)Oc1ccccc1,,inactive: -25.8%
O=C(CN1CCCc2ccccc21)NCCc1ccc(Cl)cc1,,inactive: 26%
C=CCNC(=S)NC(=O)c1ccc(C)c(Br)c1,active: 10 µM,
Cc1ccccc1Nc1nnc(SCC(=O)c2cc3ccccc3o2)s1,"inconclusive [activator, partial curve, poor fit]",
Cc1ccc2c(c1)N(C(=O)N1CCC(C(=O)NCCc3ccc(Cl)cc3)CC1)CC(C)O2 (configuration not stated),"inconclusive [activator, single point]",
CCC1CCC(C(=O)NC(C(=O)NCCN2CCOCC2)C(C)C)CC1 (configuration not stated),"inconclusive [activator, single point]",
Cc1cc(F)ccc1S(=O)(=O)Nc1ccccc1C(=O)Nc1ncn[nH]1,,inactive: 9.3%
S=C(NCc1ccccc1)NCc1cccc(Cl)c1,active: 14.1 µM,
CCOC(=O)c1ccc(NC(=S)NC2CCCC2)cc1,"inconclusive [activator, partial curve, poor fit]",

SMILES,Potency,growth rescue
COC(=O)c1ccc(NC(=O)COC(=O)CCC2CCCC2)cc1,"inconclusive [activator, partial curve, poor fit]",
CCc1ccc(-c2cn(C3CCCCC3)c(=S)[nH]2)cc1,"inconclusive [activator, single point]",
CCCCCCN1C[C@H](n2cc(-c3ccc(F)cc3)nn2)[C@@H](O)C[C@@H]1c1ccc(Cl)cc1,"inconclusive [activator, partial curve, poor fit]",
Clc1ccccc1CSc1nc2ccncc2[nH]1,,inactive: -13.5%
O=C(O)C1(c2cccc(Cl)c2)CCC1,"inconclusive [activator, partial curve, poor fit]",
Cc1ccc(-c2cc(C(=O)N/N=C/C(Br)=C/c3ccccc3)n[nH]2)o1,"inconclusive [activator, partial curve]",
CCOC(=O)c1c(C)nc(C(Cl)(Cl)Cl)nc1N,,inactive: -5.67%
CCOc1ccc(CCN2CN(C3CCCCC3)CNC2=S)cc1OCC,"inconclusive [activator, single point]",
O=C(NC1CCCCC1)C(Cc1ccccc1)N1C(=O)C2C3CCC(C3)C2C1=O (configuration not stated),"inconclusive [activator, full curve]",
O=C(NCCCCc1ccccc1)c1cc([N+](=O)[O-])cc([N+](=O)[O-])c1,"inconclusive [activator, single point]",
CC(C)(C)c1ccc(N=C2SCC(=O)N2Cc2cccs2)cc1,"inconclusive [activator, single point]",
CCOc1ccc(/C=C2/Sc3ccc(C(=O)N4CCOCC4)cc3N(C)C2=O)cc1OC,,inactive: -17.4%
CN(Cc1ccccc1)C(=S)NC(=O)c1cccs1,active: 12.6 µM,
O=C(COc1ccccc1)Nc1nnc(-c2ccccc2)o1,"inconclusive [activator, partial curve, poor fit]",
CC(NC(=S)Nc1ccc(F)cc1)c1ccccc1 (configuration not stated),"inconclusive [activator, partial curve, poor fit]",
CC(C/C=N/NC(=O)COc1cc(Cl)ccc1Cl)c1ccccc1 (configuration not stated),,inactive: -4.33%
Cc1ccc(C(C)C)cc1OCC(=O)Nc1ccc(N2CCCCC2)cc1,"inconclusive [activator, partial curve]",
CC(C)C(=O)NC(=S)/C=C1/N(C)c2ccccc2C1(C)C,"inconclusive [activator, partial curve, poor fit]",
S=c1[nH]nc2ccc3ccccc3n12,,inactive: -21.3%
CCc1c(O)nc(SCC(=O)c2ccccc2)n(-c2ccccc2)c1=O,,inactive: -94.3%
O=C1NNC(c2ccccc2)=N/C1=C\c1ccccc1,"inconclusive [activator, single point]",
O=C(N/N=C/C=C/c1ccccc1)NC1CCCCC1,"inconclusive [activator, single point]",
CC(C1CC1)N(Cc1ccccc1)C(=S)Nc1ccccc1 (configuration not stated),"inconclusive [activator, single point]",
O=C(Nc1nncs1)c1ccccc1NS(=O)(=O)c1cccs1,"inconclusive [activator, partial curve]",
